Experimental findings from the RNAGym collection of RNA variant scans (doi:10.1073/pnas.2313332121) are described below.

Variants at the floor of the assay are shown more often than the library holds them.

B1: TPR 5TU (parent)
chain: GGAUCUUCUCGAUCUAACAAAAAAGACAAAUCUGCCACAAAGCUUGAGAGCAUCUUCGGAUGCAGAGGCGGCAGCCUUCGGUGGCGCGAUAGCGCCAACGUUCUCAACUAUGACACGCAAAACGCGUGCUCCGUUGAAUGGAGUUUAUCAUG

The variants in this series derive from B1. The series is described as follows: polymerase ribozyme fitness, log enrichment relative to wild type (log ratio); higher = more active; in vitro selection for triplet polymerase activity. The method in brief: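 Each subunit of a heterodimeric triplet polymerase ribozyme was represented by a PCR-built, transcribed mutant library that underwent triplicate single-round in vitro selection with frozen incubation at −7 °C. Extended constructs were recovered by gel excision, streptavidin-bead capture and RT-PCR, and Illumina sequencing of input and output libraries kept genotypes with ≥10 input reads and ≥1 read per output. Fitness is the logarithm of genotype enrichment relative to wild-type enrichment, from inverse-variance-weighted replicate averages, with a logarithm base of 2.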
In the case of GGAUCGUCUCGAUCUAACAAAAAAGACAAAUCUCCCACAAAGCUUGAGAGCAUCUUCGGAUGCAGAGGCGGCAGCCUUCGGUGGCGCGAUUGCGCCAACGUUCUCAACUAUGACACGCAAAACGCGUGCUCCGUUGAAUGGAGUUUAUCAUG, the “polymerase ribozyme fitness (log ratio)” value was not above -4.2.

Regarding GGAUCGUCUCGAGCUAACAAAAAAGACAAAUCUGCCACAAUGCUUGAGAGCCUCUUCGGAUGCAGAGGCGGCAGCCUUCGGUGGCGCGAUAGCGCCAACGUUCUCAACUAUGACACGCAAAACGCGUGCUCCUUUGAGUGGAGUUUAGCAUG, the “polymerase ribozyme fitness (log ratio)” value was not above -4.2.

Consider GGAUCGUCUCGAUCUAACAAAAAAGACAAAUCUGCCACAAAGCUUGAGAGCAUCUUCGGAUGCAGAGGCGGCAGCCUUAAGUGGCGCGAUAGCGCCAACGUUCGCAUCUAUGACACGUAAAACGCGGGCUCCGUUGAAUGGAGUUUAUCAUG, for which the “polymerase ribozyme fitness (log ratio)” value is not above -4.2.

Consider GGAUCGUCUCCAUUUAACAAAAAAGACAAAUCUGCCACAAAGCUUGAGAGCAUCUUCGGAUGCAGAGGCGGCAGCCUUCGGUGGCGCGAUAGAGCCAACGUUCUCAACUAUGACACGCAAAACGCGUGCUCCGUUGAAUGGAGUUUAUCAUG, for which the “polymerase ribozyme fitness (log ratio)” value is not above -4.2.

As for GGAUCGUCUCGAUCUAACAAAAAAGACAAAUCUGUCACAAAGCUUGAGAUCAUCUUCGGAUGCAGAGGCGGCAGCCUUCGGUGGCGCGAUAGCGCCAACGUUCUCAACUAUGACACGCAAAACGCGUGCUCCGUUGAAUGGAGUUUAACAUG, the “polymerase ribozyme fitness (log ratio)” value was not above -4.2.

For GGAUCGUCUCGAUCUAACAAAAAAGACAAAUCGGCCACAAAGCUUGAGAGCAUCUUCGGAUGCAGAGGCGGCAGCCUUCGGUGGCGCGAUAGAGCCAACGUUCUCAACUAUGACACGCAAAACGCGUGCUCCGUUGAAUGGAGUUCAUCAUG, the “polymerase ribozyme fitness (log ratio)” value was not above -4.2.

For the variant GGAUCGUCUCGAUCUAACAAAAAAGACAAAUCUGCCACAAAGCUUGAGAGCAUCUUCGGAUGCAGAGGCGGCAGCCUUAGGUGGCGCGAUAGGGCCAACGUUCUUAACUAUGACACGCAAAACGCGUGCUCCGUAGAGUGGAGUUUAUCAUG, the “polymerase ribozyme fitness (log ratio)” value is not above -4.2.

In the case of GGAUCGUCUCGAUCUAACAAAAAAGACAAAUCUGCCACAAAGCUUAAGAGCAUCUUCGGAUGCAGAGGCGGCAGCCUUCGGUGGCGCGAUAGCGCCAACGUUCUCAACUAUGUCACGCAAAACGUGUGCUCCGUUUAAUGGAGUUCAUCAUG, the “polymerase ribozyme fitness (log ratio)” value is not above -4.2.

For the variant GGAUCGUCUCGAUCUAACAAAAAAGACAAAUCUGCCAAAAAGCUUGAGAGCAUCUUCGAAUGCAGAGGCGGCAGCCUUCGGUGGCGGGAUGGCGCCAACGUUCUCAACUAUGACACGCAAAACGCGUGCUCCGUUGAAUGGAGUUUAUCAUG, the “polymerase ribozyme fitness (log ratio)” value was not above -4.2.

With GGAUCGUCUCGAUCUAACAAAAAAGACAAAUCUGCCACAAAGCUUGAGAGCAUCUUCGGAUCCAGAGGCGGCAGCCUUCGGUGGCGCGAUAGCGCCUACGUUCUCAAGUAUGACACGCAAAACGCGUGCUCCGUUGAAUGGAGUUUAUCAUG, the “polymerase ribozyme fitness (log ratio)” value is not above -4.2.

Turning to GGAUCGUCUCGAUCUAACAAAAAAGACAAAUCUUCCACAAAGCUUGAGAGCAUCUUCGGAUGCAGAGGCGGCAGCCUUCGGUGGCGCGAUAGCGCAAACGUUCGCAACUAUGACACGCAAAACGCGUGCUCCGUAGAAUGGAGUUUAUCAUG, the “polymerase ribozyme fitness (log ratio)” value is not above -4.2.

In the case of GGAUCGUCUCGAGCUAACAAAAAAGACAAACCUGCCACAAAGCUUGAGAGCAACUUCCGAUGCAGAGGCGGCAGCCUUCGGUGACGCGAUAGCGCCAGCGUCCUCAACUAUGACACGCAAAACACGUGCUCCGUUGAAUGGAGUUUAUCAUG, the “polymerase ribozyme fitness (log ratio)” value was not above -4.2.

Consider GGAUCGUCUCGAUCUAACAAAAAAGACAAAUCUGCCACAAAGCUUGAGAGUAUCUUCGGAUGCAGAGGCGGCAGCCUUCGGUGGUGCGAUAGCGACAACGUUGUCAACUAUGACACGCAAAACGCGUGCUCCGUUGAAUAGAGUUUAUCAUG, for which the “polymerase ribozyme fitness (log ratio)” value is not above -4.2.

Regarding GGAUCGCCUCGAUCUCUCAAAAAAGACAAAUUUGCCACAAAGCUGGAGAGCAUCUUCGGAAGGUGAGGCGGCAGCCUUCGGUGGCGCGAUAGCGCCAACGUUCUCAACUAUGACACGCAAAACGCGUGCUCCGUUGAAUGGAGUUUAUCAUG, the “polymerase ribozyme fitness (log ratio)” value was not above -4.2.

For GGAUCGUCUCGAUCUAACAAAAAAUACAAAUCUGCCACAAAGCUUGAGAGCAUGUUCGGAUGCAGAGGCGGCAGCUUUCGGUGGCGAGAUAGCGCCAAGGUUCGCAACUAUGACACGCAAAACGCGUGCUCCGUUGAAUGGAGUUUAUCAAG, the “polymerase ribozyme fitness (log ratio)” value was not above -4.2.

Turning to GGAUCGUCUCGAUCUAACAAAAAAGACAAAUCUGCCACAAAGCUUGAGAGCAUCUUCGUAUGCAGAGGCGGCAGCCUUCGGUGGCGUGAUAGCGCCAACGUUCUCAACUAUGAAACGCAAAACGCGUGCUCCGUUGAAUCGAGUUUAUCAUG, the “polymerase ribozyme fitness (log ratio)” value was not above -4.2.

As for GGAUCGUCUCGAUCUAACAAAAAACACAAAUCUGCCACAAAGCUUGAGAGCAUAUUCGGAUGCAGAGGCGGCAGCCUUCGGUGGCGCGAUAGCGACAACGUUCUCAACUAUGACACGCAAAACGCGUGCUCCGUUGAAUAGAGUUGAUCAUG, the “polymerase ribozyme fitness (log ratio)” value is not above -4.2.

Consider GGAUCGUCUCGAUCUAACAAAAAAGACAAAUCUGCCACAAAGCUUGAGAGCACCUUCGGAGGCAGAGGCGGCAGCCUUCGGUGGCGCGAUAGCGCCAAUGUUCUCAACUAUGACACGCAAAACGCGUGCUCCGUUGAAUGGAGUUUAUCAUG, for which the “polymerase ribozyme fitness (log ratio)” value is not above -4.2.

As for GGAUCGUCUCGACCUAACAAAAAAGACAAAUCUGCCACAAAGCUUGAGAGCAUCUUCGAAUGCAGAGGCGGCAGCCUGCGGUGUCGCGAUAGCGCCAACGUUCUCAACUAUGACACGCAGAACUCGUGCUCCGUUGAAUGGAGUUUAUCAUG, the “polymerase ribozyme fitness (log ratio)” value was not above -4.2.
